{
  "source": "the supplement of paper PMC8728848",
  "binders": {"B1": {"name": "MPA (Maclura pomifera) (protein)", "chain": "GVTFDDGAYTGIREINFEYNSETAIGGLRVTYDLNGMPFVAEDHKSFITGFKPVKISLEFPSEYIVEVSGYVGKVEGYTVIRSLTFKTNKQTYGPYGVTNGTPFSLPIENGLIVGFKGSIGYWLDYFSIYLSLNGPNGKSQSIIVGPWGDRVTN"}},
  "experiment_in_all_cases": "glycan array binding signal (z-score within array); higher = stronger binding",
  "conditions_in_all_cases": "glycan notation: IUPAC condensed, linker removed",
  "key": {"[1]": {"target": "GlcNAc(b1-3)Gal(b1-4)GlcNAc", "method_in_brief": "(§1)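 The binding signal is a Z-score computed within each array and averaged over linkers. Arrays of the same protein sequence at different concentrations or buffers were also averaged together. Data originate from 3228 arrays in the Consortium for Functional Glycomics database, kept only where the protein sequence was available.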"}, "[2]": {"target": "GlcNAc(b1-3)Gal(b1-4)GlcNAc(b1-3)Gal(b1-4)GlcNAc", "method_in_brief": "as §1"}, "GlcNAc(b1-3)GalNAc": {"target": "GlcNAc(b1-3)GalNAc", "method_in_brief": "as §1"}, "[3]": {"target": "GlcNAc(b1-3)[GlcNAc(b1-6)]Gal(b1-4)GlcNAc", "method_in_brief": "as §1"}, "[4]": {"target": "GlcNAc(b1-3)[GlcNAc(b1-6)]GalNAc", "method_in_brief": "as §1"}, "[5]": {"target": "GlcNAc(b1-3)[GlcNAc(b1-6)]GlcNAc(b1-4)GlcNAc", "method_in_brief": "as §1"}, "[6]": {"target": "GlcNAc(b1-4)Gal(b1-4)GlcNAc", "method_in_brief": "as §1"}, "[7]": {"target": "GlcNAc(b1-4)GlcNAc(b1-4)GlcNAc", "method_in_brief": "as §1"}, "[8]": {"target": "GlcNAc(b1-4)GlcNAc(b1-4)GlcNAc(b1-4)GlcNAc(b1-4)GlcNAc", "method_in_brief": "as §1"}, "[9]": {"target": "GlcNAc(b1-4)GlcNAc(b1-4)GlcNAc(b1-4)GlcNAc(b1-4)GlcNAc(b1-4)GlcNAc", "method_in_brief": "as §1"}, "[10]": {"target": "GlcNAc(b1-4)[GlcNAc(b1-6)]GalNAc", "method_in_brief": "as §1"}, "[11]": {"target": "GlcNAc(b1-6)Gal(b1-4)GlcNAc", "method_in_brief": "as §1"}, "GlcNAc(b1-6)GalNAc": {"target": "GlcNAc(b1-6)GalNAc", "method_in_brief": "as §1"}, "Kdn(a2-3)Gal(b1-3)GlcNAc": {"target": "Kdn(a2-3)Gal(b1-3)GlcNAc", "method_in_brief": "as §1"}, "Kdn(a2-3)Gal(b1-4)GlcNAc": {"target": "Kdn(a2-3)Gal(b1-4)GlcNAc", "method_in_brief": "as §1"}, "[12]": {"target": "Man(a1-2)Man(a1-2)Man(a1-3)Man", "method_in_brief": "as §1"}, "[13]": {"target": "Man(a1-2)Man(a1-2)Man(a1-6)[Man(a1-3)]Man", "method_in_brief": "as §1"}, "Man(a1-2)Man(a1-3)Man": {"target": "Man(a1-2)Man(a1-3)Man", "method_in_brief": "as §1"}, "[14]": {"target": "Man(a1-2)Man(a1-3)[Man(a1-2)Man(a1-6)]Man", "method_in_brief": "as §1"}, "[15]": {"target": "Man(a1-2)Man(a1-3)[Man(a1-2)Man(a1-6)]Man(a1-6)[Man(a1-2)Man(a1-2)Man(a1-3)]Man(b1-4)GlcNAc(b1-4)GlcNAc", "method_in_brief": "as §1"}, "[16]": {"target": "Man(a1-2)Man(a1-3)[Man(a1-6)]Man(a1-6)[Man(a1-2)Man(a1-3)]Man(b1-4)GlcNAc(b1-4)GlcNAc", "method_in_brief": "as §1"}, "[17]": {"target": "Man(a1-2)Man(a1-6)[Man(a1-3)]Man(a1-6)[Man(a1-2)Man(a1-2)Man(a1-3)]Man(b1-4)GlcNAc(b1-4)GlcNAc", "method_in_brief": "as §1"}, "Man(a1-3)[Man(a1-6)]Man": {"target": "Man(a1-3)[Man(a1-6)]Man", "method_in_brief": "as §1"}, "[18]": {"target": "Man(a1-3)[Man(a1-6)]Man(a1-6)[Man(a1-2)Man(a1-3)]Man(b1-4)GlcNAc(b1-4)GlcNAc", "method_in_brief": "as §1"}, "[19]": {"target": "Man(a1-3)[Man(a1-6)]Man(a1-6)[Man(a1-3)]Man(b1-4)GlcNAc(b1-4)GlcNAc", "method_in_brief": "as §1"}, "[20]": {"target": "Man(a1-3)[Man(a1-6)]Man(b1-4)GlcNAc(b1-4)GlcNAc", "method_in_brief": "as §1"}, "Man(b1-4)GlcNAc": {"target": "Man(b1-4)GlcNAc", "method_in_brief": "as §1"}, "Neu5Ac(a2-3)Gal": {"target": "Neu5Ac(a2-3)Gal", "method_in_brief": "as §1"}, "[21]": {"target": "Neu5Ac(a2-3)Gal(b1-3)GalNAc", "method_in_brief": "as §1"}, "[22]": {"target": "Neu5Ac(a2-3)Gal(b1-3)GalNAc(b1-3)Gal(a1-4)Gal(b1-4)Glc", "method_in_brief": "as §1"}, "[23]": {"target": "Neu5Ac(a2-3)Gal(b1-3)GalNAc(b1-3)Gal(b1-4)GlcNAc", "method_in_brief": "as §1"}, "[24]": {"target": "Neu5Ac(a2-3)Gal(b1-3)GalNAc(b1-4)[Neu5Ac(a2-3)]Gal(b1-4)Glc", "method_in_brief": "as §1"}, "[25]": {"target": "Neu5Ac(a2-3)Gal(b1-3)GalNAc6S", "method_in_brief": "as §1"}, "[26]": {"target": "Neu5Ac(a2-3)Gal(b1-3)GlcNAc", "method_in_brief": "as §1"}, "[27]": {"target": "Neu5Ac(a2-3)Gal(b1-3)GlcNAc6S", "method_in_brief": "as §1"}, "[28]": {"target": "Neu5Ac(a2-3)Gal(b1-3)[Fuc(a1-4)]GlcNAc", "method_in_brief": "as §1"}, "[29]": {"target": "Neu5Ac(a2-3)Gal(b1-3)[Fuc(a1-4)]GlcNAc(b1-3)Gal(b1-4)[Fuc(a1-3)]GlcNAc", "method_in_brief": "as §1"}, "[30]": {"target": "Neu5Ac(a2-3)Gal(b1-3)[Neu5Ac(a2-3)Gal(b1-4)]GlcNAc", "method_in_brief": "as §1"}, "[31]": {"target": "Neu5Ac(a2-3)Gal(b1-3)[Neu5Ac(a2-6)]GalNAc", "method_in_brief": "as §1"}, "Neu5Ac(a2-3)Gal(b1-4)Glc": {"target": "Neu5Ac(a2-3)Gal(b1-4)Glc", "method_in_brief": "as §1"}, "[32]": {"target": "Neu5Ac(a2-3)Gal(b1-4)GlcNAc", "method_in_brief": "as §1"}},
  "note": "This is one part of the list.",
  "data": [
    {"binder": "B1", "values": [
      {"measurement": "glycan array binding signal (z-score)", "setting": "[1]", "value": -0.245},
      {"measurement": "glycan array binding signal (z-score)", "setting": "[2]", "value": -0.241},
      {"measurement": "glycan array binding signal (z-score)", "setting": "GlcNAc(b1-3)GalNAc", "value": 6.85},
      {"measurement": "glycan array binding signal (z-score)", "setting": "[3]", "value": -0.245},
      {"measurement": "glycan array binding signal (z-score)", "setting": "[4]", "value": -0.244},
      {"measurement": "glycan array binding signal (z-score)", "setting": "[5]", "value": -0.239},
      {"measurement": "glycan array binding signal (z-score)", "setting": "[6]", "value": -0.246},
      {"measurement": "glycan array binding signal (z-score)", "setting": "[7]", "value": -0.246},
      {"measurement": "glycan array binding signal (z-score)", "setting": "[8]", "value": -0.253},
      {"measurement": "glycan array binding signal (z-score)", "setting": "[9]", "value": -0.246},
      {"measurement": "glycan array binding signal (z-score)", "setting": "[10]", "value": -0.245},
      {"measurement": "glycan array binding signal (z-score)", "setting": "[11]", "value": -0.229},
      {"measurement": "glycan array binding signal (z-score)", "setting": "GlcNAc(b1-6)GalNAc", "value": -0.237},
      {"measurement": "glycan array binding signal (z-score)", "setting": "Kdn(a2-3)Gal(b1-3)GlcNAc", "value": -0.244},
      {"measurement": "glycan array binding signal (z-score)", "setting": "Kdn(a2-3)Gal(b1-4)GlcNAc", "value": -0.244},
      {"measurement": "glycan array binding signal (z-score)", "setting": "[12]", "value": -0.242},
      {"measurement": "glycan array binding signal (z-score)", "setting": "[13]", "value": -0.242},
      {"measurement": "glycan array binding signal (z-score)", "setting": "Man(a1-2)Man(a1-3)Man", "value": -0.235},
      {"measurement": "glycan array binding signal (z-score)", "setting": "[14]", "value": -0.247},
      {"measurement": "glycan array binding signal (z-score)", "setting": "[15]", "value": -0.238},
      {"measurement": "glycan array binding signal (z-score)", "setting": "[16]", "value": -0.244},
      {"measurement": "glycan array binding signal (z-score)", "setting": "[17]", "value": -0.236},
      {"measurement": "glycan array binding signal (z-score)", "setting": "Man(a1-3)[Man(a1-6)]Man", "value": -0.25},
      {"measurement": "glycan array binding signal (z-score)", "setting": "[18]", "value": -0.244},
      {"measurement": "glycan array binding signal (z-score)", "setting": "[19]", "value": -0.243},
      {"measurement": "glycan array binding signal (z-score)", "setting": "[20]", "value": -0.242},
      {"measurement": "glycan array binding signal (z-score)", "setting": "Man(b1-4)GlcNAc", "value": -0.24},
      {"measurement": "glycan array binding signal (z-score)", "setting": "Neu5Ac(a2-3)Gal", "value": -0.243},
      {"measurement": "glycan array binding signal (z-score)", "setting": "[21]", "value": 4.28},
      {"measurement": "glycan array binding signal (z-score)", "setting": "[22]", "value": -0.244},
      {"measurement": "glycan array binding signal (z-score)", "setting": "[23]", "value": -0.247},
      {"measurement": "glycan array binding signal (z-score)", "setting": "[24]", "value": -0.246},
      {"measurement": "glycan array binding signal (z-score)", "setting": "[25]", "value": -0.237},
      {"measurement": "glycan array binding signal (z-score)", "setting": "[26]", "value": -0.242},
      {"measurement": "glycan array binding signal (z-score)", "setting": "[27]", "value": -0.236},
      {"measurement": "glycan array binding signal (z-score)", "setting": "[28]", "value": -0.205},
      {"measurement": "glycan array binding signal (z-score)", "setting": "[29]", "value": -0.216},
      {"measurement": "glycan array binding signal (z-score)", "setting": "[30]", "value": -0.245},
      {"measurement": "glycan array binding signal (z-score)", "setting": "[31]", "value": -0.245},
      {"measurement": "glycan array binding signal (z-score)", "setting": "Neu5Ac(a2-3)Gal(b1-4)Glc", "value": -0.245},
      {"measurement": "glycan array binding signal (z-score)", "setting": "[32]", "value": -0.247}
    ]}
  ]
}
